# Among all 410,000 compounds or so, about 530 (0.13%) were called active. Inconclusive means that the source gave no clear call. Such entries were picked first, then a sample of the others. The call rests on the fitted dose curve; in most records, active means well fitted inhibition curve with a large enough effect; inconclusive means small, poorly fitted or top-dose-only effect, or another doubt; inactive means no such curve, though single readings can be large or run the other way. A potency beside an inconclusive call is a rough fit, not a confirmed value.
# Experiment: qHTS of GLP-1 Receptor Inverse Agonists: Cytotox Screen
# Settings: HEK293 cAMP-luciferase reporter cells, luminescence, 24 h; series mostly up to 38.3 µM
# In short: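 Compound-treated cells are incubated 24 hr at 37 deg C under 5% CO2 after a 12 hour attachment period, then luciferase detection reagent is added and luminescence is measured following 12 min at room temperature; lowered signal indicates toxicity.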
# Potency means the concentration at half of the fitted maximal effect.
row,SMILES,Potency
1,Cc1cccc(NC(=O)Cn2c(=O)n(CCCCCC(=O)NCc3ccccc3)c(=O)c3sccc32)c1,"inconclusive: 22.4 µM [inhibitor, partial curve, poor fit]"
2,COc1ccc2c(=O)c3c(=O)n(Cc4ccco4)c(-c4ccccc4)nc3oc2c1,"inconclusive: 0.501 µM [inhibitor, full curve, poor fit]"
3,CCCn1c(=O)c2ccccc2n2c(SCC(=O)/C(C#N)=C(\C)N)nnc12,"inconclusive: 12.6 µM [inhibitor, single point]"
4,COC(=O)c1[nH]c2ccc(C)cc2c1NC(=O)CCN1CCN(Cc2ccc3c(c2)OCO3)CC1,inactive
5,CCOc1ccc(C(=O)O/N=C(\N)c2ccccn2)cc1OCC,"inconclusive: 10 µM [inhibitor, partial curve]"
6,Cc1cccc(C(=O)NC(=S)NC(C)c2ccccc2)c1 (stereo not given),"inconclusive: 28.2 µM [inhibitor, single point]"
7,CC1CCC/C(=N\NC(=S)Nc2ccccc2)C1 (stereo not given),"inconclusive: 10 µM [inhibitor, partial curve, poor fit]"
8,C=C(CN(C)C)C(=O)c1ccc(OC2OC(COC(C)=O)C(OC(C)=O)C(OC(C)=O)C2OC(C)=O)cc1 (stereo not given),"inconclusive: 6.31 µM [inhibitor, partial curve, poor fit]"
9,Cc1cc(NC(=O)C(C)Sc2nc(-c3cccs3)nc3ccccc23)no1 (stereo not given),"inconclusive: 12.6 µM [inhibitor, single point]"
10,CCOC(=O)c1c(C)n(-c2ccc(C)cc2)c2ccc(OCC(O)CNCC3CCCO3)cc12 (stereo not given),"inconclusive: 28.2 µM [inhibitor, single point]"
11,CC(C)(C)c1ccc(/C=C(\c2nc3ccccc3[nH]2)S(=O)(=O)c2ccccc2)cc1,"inconclusive: 3.55 µM [inhibitor, full curve]"
12,Cc1ccc(C(=O)Nc2ccc3ccccc3c2)cc1,inactive
13,CC(C)NC(=O)N(C)C[C@H]1Oc2ccc(NS(=O)(=O)c3cn(C)cn3)cc2C(=O)N([C@H](C)CO)C[C@@H]1C,"inconclusive: 2.24 µM [inhibitor, partial curve, poor fit]"
14,O=c1ccnc(Nc2ccc([N+](=O)[O-])cc2)[nH]1,"inconclusive: 7.08 µM [inhibitor, partial curve, poor fit]"
15,CC1Cc2ccccc2N1C(=O)CSc1nn2c(=O)c(C(C)(C)C)nnc2s1 (stereo not given),"inconclusive: 28.2 µM [inhibitor, partial curve, poor fit]"
16,CCOc1cccc(CN(CC)CC2CCCN(CCc3cccc(OC)c3)C2)c1O (stereo not given),"inconclusive: 28.2 µM [inhibitor, single point]"
17,Cc1ccc2cc3cc(C(=O)N4CCCCC4C)oc3nc2c1 (stereo not given),inactive
18,CCOc1ccc(N(CC(=O)NC2CCCC2)C(=O)CCC(=O)Nc2nccs2)cc1,"inconclusive: 11.2 µM [inhibitor, single point]"
19,CNc1ccc(Br)cc(C(=O)/C=C/c2cccc(OC)c2)c1=O,"inconclusive: 28.2 µM [inhibitor, single point]"
20,OCCNCc1cc(Br)ccc1OCc1ccc(Cl)cc1,inactive
21,CCOC(=O)c1[nH]c(C=O)c(C(=O)OCC)c1C,"inconclusive: 3.55 µM [inhibitor, full curve]"
22,O=C(Nc1ccc(F)cc1)Nc1ccccc1C(=O)NCCN1CCNC1=O,"inconclusive: 15.8 µM [inhibitor, single point]"

row,SMILES,Potency
1,O=C(c1ccc(Cl)cc1)C1CCN(C(=O)N2CCOCC2)CC1,"inconclusive: 28.2 µM [inhibitor, single point]"
2,COc1ccc(OC)c(CN2C(=O)c3ccccc3C2C(=O)NCC2CCCO2)c1 (stereo not given),"inconclusive: 5.01 µM [inhibitor, full curve]"
3,COc1ccc(OC)c(C2CC(=O)Oc3c2c(=O)n(C)c2ccccc32)c1 (stereo not given),inactive
4,COc1ccc(CNC(=S)NC2CCCC2)cc1,"inconclusive: 28.2 µM [inhibitor, single point]"
5,O=C(COc1c(Br)cc(Br)cc1Br)N/N=C/c1ccco1,"inconclusive: 22.4 µM [inhibitor, single point]"
6,CCOc1ccccc1NC(=O)CCc1c(C)nn(-c2ccc(N3CCCCC3)nn2)c1C,"inconclusive: 31.6 µM [inhibitor, single point]"
7,COc1ccc(-c2nc(NC(=O)Cn3c(=O)oc4ccccc43)sc2C)cc1,inactive
8,CCC(=O)OCOc1ccc(/C=C2/CCC(CN(C)C)C2=O)cc1 (stereo not given),"inconclusive: 12.6 µM [inhibitor, single point]"
9,CCN(CC)c1cc(C)c2cc(NC(=O)/C=C/c3cc(OC)c(OC)c(OC)c3)ccc2n1,"inconclusive: 11.2 µM [inhibitor, single point]"
10,Cc1nc(SCC(=O)Nc2ccc3c(c2)OCCO3)c2oc3ccccc3c2n1,"inconclusive: 22.4 µM [inhibitor, single point]"
11,CN(C)CC/C=C1\c2ccccc2Sc2ccc(Cl)cc21,"inconclusive: 28.2 µM [inhibitor, single point]"
12,CC1CCCCN1C(=S)NC(=O)c1cccs1 (stereo not given),"inconclusive: 3.16 µM [inhibitor, full curve, poor fit]"
13,COc1cc(/C=N/NC(=S)Nc2cccc(Cl)c2C)ccc1OCC(=O)N1CC(C)OC(C)C1 (stereo not given),"inconclusive: 10 µM [inhibitor, partial curve, poor fit]"
14,CN(C)CCCC1Sc2ccccc2Sc2ccccc21 (stereo not given),"inconclusive: 14.1 µM [inhibitor, single point]"
15,COc1ccc(-n2nc(C(=O)N3CCCCC3C)c3c4ccccc4n(C)c3c2=O)cc1Cl (stereo not given),inactive
16,COc1ccc(NC(=O)CC2C(=O)N(c3ccc(F)cc3)C(=S)N2NC(=O)c2ccccc2)cc1 (stereo not given),inactive
17,Cn1cc(C(=O)N/N=C/c2cccs2)c2ccccc21,"inconclusive: 28.2 µM [inhibitor, single point]"
18,OC[C@@H]1CN(Cc2ccco2)C[C@H](n2cnc3c(NC4CCCC4)ncnc32)O1,inactive
19,CCOc1ccc(NC(=O)Cn2c(=O)n(Cc3ccc4c(c3)OCO4)c(=O)c3ccc(C(=O)NC4CCCCC4)cc32)cc1,inactive
20,COc1ccc(Nc2c3c(nc4ccccc24)CCC3)cc1Cl,"inconclusive: 7.94 µM [inhibitor, partial curve, poor fit]"
21,O=C(CNCCC1=CCCCC1)Nc1ccc(N2CCCCCC2)cc1,"inconclusive: 12.6 µM [inhibitor, single point]"
22,Cc1cc(C)c2sc(N(CCN(C)C)C(=O)c3c(F)cccc3F)nc2c1,inactive

row,SMILES,Potency
1,CS/C(=C\[N+](=O)[O-])Nc1ccc(C)cc1,"inconclusive: 14.1 µM [inhibitor, single point]"
2,Nc1ccc2nc(SCC(=O)N3CCN(c4ccccc4)CC3)sc2c1,"inconclusive: 28.2 µM [inhibitor, single point]"
3,CC(=O)N1CCc2cc(Br)cc(S(=O)(=O)N3CCC(C(=O)Nc4cccc(C)c4C)CC3)c21,inactive
4,Cc1ccc(S(=O)(=O)NN=Cc2ccco2)cc1,"inconclusive: 0.316 µM [inhibitor, full curve, poor fit]"
5,CCCCCCCCCCCCCCCCn1cc[n+](CC(C)=O)c1,"inconclusive: 10 µM [inhibitor, partial curve]"
6,O=C(NCCc1ccccc1)C(c1cccs1)N(C(=O)CCl)c1ccc(Cl)cc1 (stereo not given),"inconclusive: 31.6 µM [inhibitor, single point]"
7,CCn1c(=O)c2c(nc3n2CCN3c2ccc(OC)cc2)n(C)c1=O,inactive
8,CCCCOc1ccc(NC(=O)CSc2cccc3cccnc23)cc1,"inconclusive: 10 µM [inhibitor, partial curve]"
9,CC(=O)c1ccc(NC(=O)C2CCN(c3nnc(C)c4c(C)n(-c5ccccc5)nc34)CC2)cc1,inactive
10,Cc1ccnc(NC(=O)c2ccccc2NC(=O)c2ccc(Cl)cc2Cl)c1,"inconclusive: 2.24 µM [inhibitor, full curve]"
11,COc1ccc(/C=N/NC(=S)Nc2ccccc2[N+](=O)[O-])cc1O,"inconclusive: 11.2 µM [inhibitor, partial curve, poor fit]"
12,CN(C)CCCN1C(=O)c2cccc3cccc(c23)C1=O,"inconclusive: 28.2 µM [inhibitor, single point]"
13,COc1ccc(OC)c(-c2cc(-c3cccnc3)nc(N)c2C#N)c1,"inconclusive: 3.16 µM [inhibitor, full curve, poor fit]"
14,Cc1ccc(S(=O)(=O)c2cn(Cc3ccccc3)c3cc(N4CCCCC4)c(F)cc3c2=O)cc1,inactive
15,Cc1[nH]c2ccccc2c1C(=O)COC(=O)c1cccc(S(=O)(=O)N2CCCCC2)c1,"inconclusive: 12.6 µM [inhibitor, single point]"
16,Oc1oc(-c2ccccc2)nc1C=Nc1ccccc1,"inconclusive: 28.2 µM [inhibitor, single point]"
17,NC(=O)Cn1c(O)c(N=NC(=O)CNC(=O)/C=C/c2ccccc2)c2ccccc21,inactive
18,Cc1ccc(N2C(N)=C(C#N)C(c3cccnc3)C3=C2CC(C)(C)CC3=O)cc1 (stereo not given),"inconclusive: 11.2 µM [inhibitor, single point]"
19,Cc1ccc(S(=O)(=O)CCC(=O)c2cccc([N+](=O)[O-])c2)cc1,"inconclusive: 6.31 µM [inhibitor, single point]"
20,CCOc1cc2c3c(c1)C1(C(=O)N3C(C)(C)C=C2C)C(C#N)=C(N)Oc2cc(O)ccc21 (stereo not given),"inconclusive: 28.2 µM [inhibitor, single point]"
21,Cc1cccn2c(=O)c(C(=O)NCCc3ccccc3)c(O)nc12,inactive
